The assay deals with NCI-H322M lung. The assay can be described thus: growth of human tumour cells (NCI), 48 h.

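Test compounds were applied to cells in 96-well plates for 48 hours at 5 doses. The concentration for 50% growth inhibition is given as GI50. Definition used: TGI = concentration required for complete inhibition of growth.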

For two compounds, GI50 and TGI results are on record in PubChem BioAssay (NCI).

As for `CCN1C(=O)N(CC)C2SC(N/N=C/c3ccc(F)cc3)=NC21` (centres undefined), the GI50 was 0.902 µM and the TGI is above 100 µM.

Regarding `NC(=O)c1c(NC(=O)c2ccccc2C(F)(F)F)sc2c1CCC(=O)C2`, the GI50 was 4.79 µM and the TGI is 80.4 µM.
